Test results published in PubChem BioAssay AID504466 (National Center for Advancing Translational Sciences (NCATS), 2011).
The campaign covered roughly 330,000 compounds. About 4,200 (1.3%) were called active. The shares of active, inactive and inconclusive entries below differ from those in the screen. Calls come from the whole dose curve; as a rule, active = well fitted activation curve with a large enough effect; inconclusive = small, poorly fitted or top-dose-only effect; inactive = no such curve, though single readings can be large or run the other way. Where the call is inconclusive, the potency comes from a doubtful curve fit.
Potency is the fitted concentration of half-maximal effect; tags give direction and shape of the fitted curve.

Assay: qHTS screen for small molecules that induce genotoxicity in human embryonic kidney (HEK293T) cells expressing luciferase-tagged ELG1; note: nearly all actives have a fitted effect of over 60% in size
Conditions: HEK293T ELG1-luciferase reporter, luminescence, 16 h; series mostly up to 46 µM
Procedure, shortened: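 Screening used a luciferase reporter fused to human ELG1 in HEK293T cells. Luminescence was read on a CCD plate imager after 16 hr exposure and 30 min ONE-Glo incubation.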
For `C=CCOc1ccc(/C=C/C(=O)OCC(=O)NCCC2=CCCCC2)cc1`, the Potency was inconclusive: 29.1 µM [activator, partial curve, poor fit]. With `CC1=C(C#N)C(NC(=O)c2ccc(Cl)cc2)(C(F)(F)F)C(=O)N1` (centres undefined) the Potency was “inactive”. In the case of `COc1cc2c(cc1OC)C(C)N(C(C)=O)CC2` (centres undefined), the Potency is reported as inconclusive: 20.6 µM [activator, single point]. For `O=C(CCC1CCCCC1)N1CCN(Cc2ccc3c(c2)OCO3)CC1`, the Potency was inconclusive: 25.9 µM [activator, partial curve, poor fit]. With `Cc1[nH]n(-c2cccc3ccccc23)c(=O)c1/C=N/c1sc2c(c1C#N)CCC2` the Potency was “inactive”. For `COc1ccccc1NC(=O)CSc1ccc(-c2ccc(-n3ccnc3)cc2)nn1`, the Potency was inconclusive: 4.11 µM [activator, single point]. For `COc1ccc(C2(C)NC(=O)NC2=O)cc1OC` (centres undefined), the Potency was inconclusive: 25.9 µM [activator, partial curve, poor fit]. In the case of `O=C(Nc1ccccc1)N1CC=C(c2ccc(F)cc2)CC1`, the Potency is reported as inconclusive: 14.1 µM [activator, partial curve, poor fit]. In the case of `Cc1ccc(S(=O)(=O)N2CCC(C(=O)OCC(=O)N3CCCC(C)C3)CC2)cc1C` (centres undefined), the Potency is reported as “inactive”. With `CC(CNC(=O)c1ccccc1Cl)c1ccccc1` (centres undefined) the Potency was inconclusive: 18.3 µM [activator, partial curve, poor fit]. For `CCOC(=O)c1cc(-c2ccccc2)nc2nc(N(CC)CC)sc12`, the Potency was “inactive”. In the case of `COc1cccc(/C=C/C(=O)c2ccc3c(c2)OCCO3)c1OC`, the Potency is reported as inconclusive: 13 µM [activator, partial curve]. In the case of `C/C(=N/N=C/c1ccc(N(C)C)cc1)c1ccccc1`, the Potency is reported as active: 0.366 µM. With `O=C1C2C3c4ccccc4C(c4ccccc43)[C@@H]2C(=O)N1c1cccnc1` (some centres undefined) the Potency was inconclusive: 20.6 µM [activator, partial curve, poor fit]. With `CCn1cc(C=C2C(=O)c3ccccc3C2=O)c2ccccc21` the Potency was inconclusive: 29.1 µM [activator, partial curve, poor fit]. With `CN1CCN(/C=N/c2sc3c(c2C#N)CCCCC3)CC1` the Potency was inconclusive: 14.6 µM [activator, partial curve]. With `Nc1ccc2oc(C3CCCCC3)nc2c1` the Potency was inconclusive: 20.6 µM [activator, partial curve]. With `O=C(Nc1ccc(-c2nc3ccccc3o2)cc1)c1ccc(N2CCOCC2)c([N+](=O)[O-])c1` the Potency was “inactive”. With `N/C(=N\OC(=O)c1ccc(Cl)cc1[N+](=O)[O-])c1cccnc1` the Potency was inconclusive: 18.3 µM [activator, partial curve, poor fit]. With `CSCc1ccc(C(=O)NCCSc2ccc(Br)cc2)cc1` the Potency was inconclusive: 4.11 µM [activator, single point]. In the case of `Cc1ccc2nc(N3C(=O)C(O)=C(C(=O)c4cc5ccccc5o4)C3c3cccs3)sc2c1` (centres undefined), the Potency is reported as inconclusive: 2.31 µM [activator, full curve, poor fit]. For `O=C(COC(=O)CSc1ccc([N+](=O)[O-])cc1)NCC1CCCO1` (centres undefined), the Potency was “inactive”. In the case of `Cc1[nH]n(C(N)=S)c(=O)c1N=Nc1ccc(Br)cc1`, the Potency is reported as inconclusive: 3.26 µM [activator, full curve]. With `CCOC(=O)Cc1csc(NC(=O)c2ccc(S(=O)(=O)N3CCCCC3)cc2)n1` the Potency was “inactive”. For `COc1ccccc1CNC(=O)c1csc(Cc2ccc(Cl)cc2)n1`, the Potency was “inactive”. With `COc1ccccc1C(=O)N/N=C/c1ccc2c(c1)OCO2` the Potency was inconclusive: 29.1 µM [activator, single point]. For `CC(C)(C)c1csc(NC(=O)C2=COCCO2)n1`, the Potency was inconclusive: 14.6 µM [activator, partial curve]. In the case of `O=C(Nc1ccc(F)cc1)Nc1ccc(N2CCOCC2)c2nonc12`, the Potency is reported as inconclusive: 9.2 µM [activator, partial curve]. For `O=C(Nc1ccc2c(c1)OCO2)c1cnc2n(c1=O)CCS2`, the Potency was inconclusive: 10.3 µM [activator, partial curve]. With `COc1ccc(C(=O)c2cc3cccc(OC)c3o2)cc1` the Potency was inconclusive: 16.4 µM [activator, partial curve]. For `O=c1[nH]cnc2c1sc1nc(C(F)F)cc(-c3ccccc3)c12`, the Potency was inconclusive: 29.1 µM [activator, partial curve, poor fit]. In the case of `CC(NC(=O)c1cc2ccccc2o1)c1ccccc1` (centres undefined), the Potency is reported as “inactive”. For `COc1cc(OC)cc(C(=O)Nc2ccc3c(c2)OCCO3)c1`, the Potency was inconclusive: 14.6 µM [activator, partial curve]. For `COC(=O)c1sccc1N/N=C/c1cccc(OC)c1O`, the Potency was inconclusive: 0.92 µM [activator, partial curve]. In the case of `CCCCOc1ccc(C(=O)NCCc2ccccc2)cc1`, the Potency is reported as inconclusive: 4.61 µM [activator, partial curve]. For `COc1cc(-c2noc(C)c2C#Cc2ccc(N)cc2)cc(OC)c1OC`, the Potency was inconclusive: 7.3 µM [activator, partial curve, poor fit]. In the case of `NC(=O)c1cc([N+](=O)[O-])c(Cl)cc1NCc1cccnc1`, the Potency is reported as inconclusive: 29.1 µM [activator, partial curve, poor fit]. With `c1csc(-c2ccc(N3CCOCC3)nn2)c1` the Potency was inconclusive: 2.31 µM [activator, partial curve]. With `O=C(Nc1nc(COc2ccccc2)cs1)C12CC3CC(CC(C3)C1)C2` the Potency was inconclusive: 16.4 µM [activator, single point]. With `CN1C(=O)S/C(=C/c2ccc(OCc3cccc(C(=O)O)c3)cc2)C1=O` the Potency was inconclusive: 0.631 µM [activator, full curve]. In the case of `Cc1nc2ccccc2c(=O)n1NC(=O)c1ccc(Cl)c(Cl)c1`, the Potency is reported as “inactive”. In the case of `Cc1ccc(NC(=O)COc2ccc(S(=O)(=O)N3CCOCC3)cc2)cc1`, the Potency is reported as “inactive”. For `Cn1c(=O)n(C)c2cc(NC(=O)c3cc4ccccc4o3)ccc21`, the Potency was active: 16.4 µM. With `COc1ccc(-c2nnc(SCc3nc4ccccc4c(=O)[nH]3)o2)cc1` the Potency was inconclusive: 18.3 µM [activator, partial curve, poor fit]. In the case of `COc1cccc(C(=O)Oc2c(CN3CCOCC3)cc(Cl)c3cccnc23)c1`, the Potency is reported as “inactive”. For `N/C(=N\OC(=O)c1ccccc1Cl)c1ccccc1`, the Potency was inconclusive: 0.58 µM [activator, partial curve]. For `COc1ccccc1-c1cc(C(=O)NCCc2ccccc2)no1`, the Potency was active: 13 µM. With `C/C(=N\Nc1cccc2cccnc12)c1ccc(C)cc1` the Potency was inconclusive: 9.2 µM [activator, partial curve]. For `Cc1ccc(NC(=S)N2CCCCC2)cc1C`, the Potency was “inactive”. In the case of `Cc1ccc(NC(=O)c2ccccc2F)nc1`, the Potency is reported as active: 1.84 µM. For `CCOC(=O)c1ccc(OCC(=O)c2ccc(O)cc2O)cc1`, the Potency was inconclusive: 18.4 µM [activator, partial curve, poor fit]. In the case of `COc1ccc(CN=C2NN=C(c3ccccc3)CS2)cc1`, the Potency is reported as “inactive”. For `O=C(Nc1cccc(/C=C/c2nc3ccccc3c(=O)[nH]2)c1)c1ccccc1Cl`, the Potency was “inactive”. For `Cc1cc2nn(-c3ccc(F)cc3)nc2cc1N`, the Potency was active: 1.64 µM. For `COC(=O)Cn1ncc(N(C)Cc2ccccc2)c(Cl)c1=O`, the Potency was inconclusive: 9.2 µM [activator, partial curve]. In the case of `CC1CCC(NC(=O)Cn2c3c(c(-c4ccccc4Cl)cc2=O)CCC3)CC1` (centres undefined), the Potency is reported as inconclusive: 18.4 µM [activator, single point]. For `O=C(CNC(=O)c1ccc(Cl)cc1Cl)NCc1ccccn1`, the Potency was “inactive”. With `CC(Sc1nc2ccccc2o1)C(=O)O` (centres undefined) the Potency was inconclusive: 20.6 µM [activator, partial curve, poor fit]. For `CC(=O)N(CC1CCCO1)c1nnc(-c2ccccn2)s1` (centres undefined), the Potency was inconclusive: 20.6 µM [activator, partial curve, poor fit]. In the case of `CCCc1cc(=O)[nH]c(SCC(=O)Nc2sccc2C#N)n1`, the Potency is reported as “inactive”. For `Cc1ccc(S(=O)(=O)Nc2cccc(-c3ccc4nnc(C)n4n3)c2)s1`, the Potency was active: 20.6 µM. In the case of `CCOC(=O)c1ccc2[nH]c3c(c2c1)CCCC3`, the Potency is reported as active: 23.1 µM. In the case of `O=C(Cc1ccc(Cl)cc1)Nc1ccc(NC(=O)c2cccs2)cc1`, the Potency is reported as inconclusive: 20.6 µM [activator, single point]. For `C/C(CC(=O)Nc1ccc2c(c1)OCCO2)=N\NC(=O)c1ccccn1`, the Potency was inconclusive: 23.1 µM [activator, partial curve, poor fit]. For `c1ccc(Cn2nnc(-c3ccccc3)n2)cc1`, the Potency was inconclusive: 23.1 µM [activator, partial curve, poor fit]. With `NNC(=S)Nc1ccccc1Cl` the Potency was inconclusive: 3.66 µM [activator, full curve, poor fit]. With `CC(C)=CC(=O)Nc1ccc(Cl)cc1` the Potency was inconclusive: 4.61 µM [activator, full curve]. In the case of `Cc1nc2scc(-c3ccccc3)c2c(=O)n1N=C1C=CC(=O)C=C1`, the Potency is reported as inconclusive: 23.1 µM [activator, single point]. In the case of `COc1ccc(NC(=O)CN(C)C(=O)CCCc2nc3ccccc3c(=O)[nH]2)cc1`, the Potency is reported as “inactive”. For `COc1ccc(CC(=O)Nc2ccc(C(=O)Nc3nccs3)cc2)cc1OC`, the Potency was “inactive”. For `CCc1ccc(NC(=O)c2c(C(=O)Nc3ccccc3)sc3nc(C)cc(=O)n23)cc1`, the Potency was “inactive”. In the case of `CCc1cc2c(=O)n(CC(C)C)cnc2s1`, the Potency is reported as “inactive”. In the case of `CCCn1nc(C(=O)NC2CC2)c2ccccc2c1=O`, the Potency is reported as “inactive”. In the case of `CCCCN1CN=C(Nc2nc3ccccc3o2)NC1`, the Potency is reported as inconclusive: 14.6 µM [activator, partial curve, poor fit].
